Measured values: the supplement of paper PMC8728848
The list shows a part of the results.

Key:
Experiment in all cases: glycan array binding signal (z-score within array); higher = stronger binding
Conditions in all cases: glycan notation: IUPAC condensed, linker removed
[1] = biological target: Fuc(a1-3)[Gal(b1-4)]GlcNAc(b1-3)Gal(b1-4)[Fuc(a1-3)]GlcNAc
In short: (§1)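 Arrays were curated from the Consortium for Functional Glycomics database, 3228 in total, and kept only where the protein sequence was available. Binding is expressed as a within-array Z-score. This score was averaged across arrays of the same protein sequence at different concentrations or buffers and across linkers, and negative values can be read as non-binding.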

[2] = biological target: Fuc(a1-3)[Gal(b1-4)]GlcNAc(b1-3)Gal(b1-4)[Fuc(a1-3)]GlcNAc(b1-3)Gal(b1-4)[Fuc(a1-3)]GlcNAc
In short: as §1

[3] = biological target: Fuc(a1-3)[Gal(b1-4)]GlcNAc(b1-3)GalNAc
In short: as §1

[4] = biological target: Fuc(a1-3)[Gal(b1-4)]GlcNAc(b1-6)GalNAc
In short: as §1

[5] = biological target: Fuc(a1-3)[Gal(b1-4)]GlcNAc(b1-6)[Gal(b1-3)GlcNAc(b1-3)]Gal(b1-4)Glc
In short: as §1

[6] = biological target: Fuc(a1-3)[Gal(b1-4)]GlcNAc6S
In short: as §1

[7] = biological target: Fuc(a1-3)[Gal3S(b1-4)]Glc
In short: as §1

[8] = biological target: Fuc(a1-3)[Gal3S(b1-4)]GlcNAc
In short: as §1

[9] = biological target: Fuc(a1-3)[Gal3S(b1-4)]GlcNAc6S
In short: as §1

[10] = biological target: Fuc(a1-3)[GalNAc(b1-4)]GlcNAc
In short: as §1

[11] = biological target: Fuc(a1-3)[GalNAc(b1-4)]GlcNAc6S
In short: as §1

Fuc(a1-4)GlcNAc = biological target: Fuc(a1-4)GlcNAc
In short: as §1

Fuc(b1-3)GlcNAc = biological target: Fuc(b1-3)GlcNAc
In short: as §1

Gal(a1-2)Gal = biological target: Gal(a1-2)Gal
In short: as §1

Gal(a1-3)Gal = biological target: Gal(a1-3)Gal
In short: as §1

Gal(a1-3)Gal(b1-3)GlcNAc = biological target: Gal(a1-3)Gal(b1-3)GlcNAc
In short: as §1

[12] = biological target: Gal(a1-3)Gal(b1-3)GlcNAc(b1-2)Man
In short: as §1

[13] = biological target: Gal(a1-3)Gal(b1-3)GlcNAc(b1-2)Man(a1-3)[Gal(a1-3)Gal(b1-3)GlcNAc(b1-2)Man(a1-6)]Man(b1-4)GlcNAc(b1-4)GlcNAc
In short: as §1

[14] = biological target: Gal(a1-3)Gal(b1-3)GlcNAc(b1-3)GalNAc
In short: as §1

[15] = biological target: Gal(a1-3)Gal(b1-3)GlcNAc(b1-6)GalNAc
In short: as §1

[16] = biological target: Gal(a1-3)Gal(b1-3)[Fuc(a1-4)]GlcNAc(b1-2)Man(a1-3)[Gal(a1-3)Gal(b1-3)[Fuc(a1-4)]GlcNAc(b1-2)Man(a1-6)]Man(b1-4)GlcNAc(b1-4)GlcNAc
In short: as §1

Gal(a1-3)Gal(b1-4)Glc = biological target: Gal(a1-3)Gal(b1-4)Glc
In short: as §1

Gal(a1-3)Gal(b1-4)GlcNAc = biological target: Gal(a1-3)Gal(b1-4)GlcNAc
In short: as §1

[17] = biological target: Gal(a1-3)Gal(b1-4)GlcNAc(b1-2)Man
In short: as §1

[18] = biological target: Gal(a1-3)Gal(b1-4)GlcNAc(b1-2)Man(a1-3)[Gal(a1-3)Gal(b1-4)GlcNAc(b1-2)Man(a1-6)]Man(b1-4)GlcNAc(b1-4)GlcNAc
In short: as §1

[19] = biological target: Gal(a1-3)Gal(b1-4)GlcNAc(b1-3)GalNAc
In short: as §1

[20] = biological target: Gal(a1-3)Gal(b1-4)GlcNAc(b1-6)GalNAc
In short: as §1

[21] = biological target: Gal(a1-3)Gal(b1-4)[Fuc(a1-3)]GlcNAc
In short: as §1

[22] = biological target: Gal(a1-3)Gal(b1-4)[Fuc(a1-3)]GlcNAc(b1-2)Man(a1-3)[Gal(a1-3)Gal(b1-4)[Fuc(a1-3)]GlcNAc(b1-2)Man(a1-6)]Man(b1-4)GlcNAc(b1-4)GlcNAc
In short: as §1

Gal(a1-3)GalNAc = biological target: Gal(a1-3)GalNAc
In short: as §1

[23] = biological target: Gal(a1-3)[Gal(a1-4)]Gal(b1-4)GlcNAc
In short: as §1

[24] = biological target: Gal(a1-4)Gal(b1-3)GlcNAc(b1-2)Man(a1-3)[Gal(a1-4)Gal(b1-3)GlcNAc(b1-2)Man(a1-6)]Man(b1-4)GlcNAc(b1-4)GlcNAc
In short: as §1

Gal(a1-4)Gal(b1-4)Glc = biological target: Gal(a1-4)Gal(b1-4)Glc
In short: as §1

Gal(a1-4)Gal(b1-4)GlcNAc = biological target: Gal(a1-4)Gal(b1-4)GlcNAc
In short: as §1

[25] = biological target: Gal(a1-4)Gal(b1-4)GlcNAc(b1-2)Man(a1-3)[Gal(a1-4)Gal(b1-4)GlcNAc(b1-2)Man(a1-6)]Man(b1-4)GlcNAc(b1-4)GlcNAc
In short: as §1

[26] = biological target: Gal(a1-4)Gal(b1-4)GlcNAc(b1-3)Gal(b1-4)Glc
In short: as §1

Gal(a1-4)GlcNAc = biological target: Gal(a1-4)GlcNAc
In short: as §1

Gal(a1-6)Glc = biological target: Gal(a1-6)Glc
In short: as §1

B1: PX9961H-bth-557-24-557 (Bacteroides thetaiotaomicron) (protein)
chain: EETRTEVEKKNYMNNAEEAKDVLLGVYRTNTLDAMYGYYLSILFNLGTDISQVEGSGNENFRIIPTNSFPTTQSEVQQTWAALYTGIYRANDFLERISNKIGSYTTTDKKLATLYIAEARALRGMFYFELVRRFGNVVLMTSTQMSNQNPATYVQSAPEKVYEYIEDDLLYACDILPYATDDQYRESNDYRFSKGAALGLLTKVYATWAGYPVKDESKWEAAAKTARILVESGKHGLLKDYEQLWKNTCNGTWDPTESLIEISFYSPTVSGNSDPVGRIGKWNGVKTTAIAGVRGSCAANVKVVHTFVLDWREDVSDIRRDLSIANYQYTDTKKSLWVAGASDTDESAAEKDADPTKAQKNKQNYTPAKWDIQKYVTTNSFINNDKSNVNWYFLRYADVLLLYAEALNEWKHGPDAEAYNAINAVRRRGYGNPSNTSACDLPQGLDETSFREAVRKERSYELSFEGHRRQDLIRWGIYYKTVQATAKELGYWWEGTGSPNYSVATYTEEGKHELFPIPQRDMDLCIQFNQNPKW
glycan array binding signal (z-score) [1]: -0.339 | glycan array binding signal (z-score) [2]: -0.101 | glycan array binding signal (z-score) [3]: -0.032 | glycan array binding signal (z-score) [4]: -0.376 | glycan array binding signal (z-score) [5]: -0.553 | glycan array binding signal (z-score) [6]: 0.629 | glycan array binding signal (z-score) [7]: -0.743 | glycan array binding signal (z-score) [8]: -0.246 | glycan array binding signal (z-score) [9]: -0.195 | glycan array binding signal (z-score) [10]: -0.173 | glycan array binding signal (z-score) [11]: -0.329 | glycan array binding signal (z-score) (Fuc(a1-4)GlcNAc): -0.378 | glycan array binding signal (z-score) (Fuc(b1-3)GlcNAc): -0.208 | glycan array binding signal (z-score) (Gal(a1-2)Gal): -0.611 | glycan array binding signal (z-score) (Gal(a1-3)Gal): -0.305 | glycan array binding signal (z-score) (Gal(a1-3)Gal(b1-3)GlcNAc): -0.488 | glycan array binding signal (z-score) [12]: -0.276 | glycan array binding signal (z-score) [13]: 4.31 | glycan array binding signal (z-score) [14]: -0.043 | glycan array binding signal (z-score) [15]: -0.588 | glycan array binding signal (z-score) [16]: -0.134 | glycan array binding signal (z-score) (Gal(a1-3)Gal(b1-4)Glc): -0.054 | glycan array binding signal (z-score) (Gal(a1-3)Gal(b1-4)GlcNAc): -0.077 | glycan array binding signal (z-score) [17]: -0.357 | glycan array binding signal (z-score) [18]: 0.856 | glycan array binding signal (z-score) [19]: -0.394 | glycan array binding signal (z-score) [20]: -0.311 | glycan array binding signal (z-score) [21]: -0.309 | glycan array binding signal (z-score) [22]: 2.12 | glycan array binding signal (z-score) (Gal(a1-3)GalNAc): -0.401 | glycan array binding signal (z-score) [23]: 3.24 | glycan array binding signal (z-score) [24]: 5.85 | glycan array binding signal (z-score) (Gal(a1-4)Gal(b1-4)Glc): -0.186 | glycan array binding signal (z-score) (Gal(a1-4)Gal(b1-4)GlcNAc): -0.381 | glycan array binding signal (z-score) [25]: -0.37 | glycan array binding signal (z-score) [26]: -0.107 | glycan array binding signal (z-score) (Gal(a1-4)GlcNAc): -0.493 | glycan array binding signal (z-score) (Gal(a1-6)Glc): -0.474
